The campaign covered roughly 310,000 compounds. About 2,200 (0.71%) showed an effect of 50% or more. The effect is printed as a negative number. This is one part of the list.
Each molecule was assayed against human ether-à-go-go-related gene (hERG) potassium channel (human, UniProt Q12809) (assay: primary screen, population patch clamp on CHO cells stably expressing hERG).
Sequence of human ether-à-go-go-related gene (hERG) potassium channel (Q12809 whole entry, looked up): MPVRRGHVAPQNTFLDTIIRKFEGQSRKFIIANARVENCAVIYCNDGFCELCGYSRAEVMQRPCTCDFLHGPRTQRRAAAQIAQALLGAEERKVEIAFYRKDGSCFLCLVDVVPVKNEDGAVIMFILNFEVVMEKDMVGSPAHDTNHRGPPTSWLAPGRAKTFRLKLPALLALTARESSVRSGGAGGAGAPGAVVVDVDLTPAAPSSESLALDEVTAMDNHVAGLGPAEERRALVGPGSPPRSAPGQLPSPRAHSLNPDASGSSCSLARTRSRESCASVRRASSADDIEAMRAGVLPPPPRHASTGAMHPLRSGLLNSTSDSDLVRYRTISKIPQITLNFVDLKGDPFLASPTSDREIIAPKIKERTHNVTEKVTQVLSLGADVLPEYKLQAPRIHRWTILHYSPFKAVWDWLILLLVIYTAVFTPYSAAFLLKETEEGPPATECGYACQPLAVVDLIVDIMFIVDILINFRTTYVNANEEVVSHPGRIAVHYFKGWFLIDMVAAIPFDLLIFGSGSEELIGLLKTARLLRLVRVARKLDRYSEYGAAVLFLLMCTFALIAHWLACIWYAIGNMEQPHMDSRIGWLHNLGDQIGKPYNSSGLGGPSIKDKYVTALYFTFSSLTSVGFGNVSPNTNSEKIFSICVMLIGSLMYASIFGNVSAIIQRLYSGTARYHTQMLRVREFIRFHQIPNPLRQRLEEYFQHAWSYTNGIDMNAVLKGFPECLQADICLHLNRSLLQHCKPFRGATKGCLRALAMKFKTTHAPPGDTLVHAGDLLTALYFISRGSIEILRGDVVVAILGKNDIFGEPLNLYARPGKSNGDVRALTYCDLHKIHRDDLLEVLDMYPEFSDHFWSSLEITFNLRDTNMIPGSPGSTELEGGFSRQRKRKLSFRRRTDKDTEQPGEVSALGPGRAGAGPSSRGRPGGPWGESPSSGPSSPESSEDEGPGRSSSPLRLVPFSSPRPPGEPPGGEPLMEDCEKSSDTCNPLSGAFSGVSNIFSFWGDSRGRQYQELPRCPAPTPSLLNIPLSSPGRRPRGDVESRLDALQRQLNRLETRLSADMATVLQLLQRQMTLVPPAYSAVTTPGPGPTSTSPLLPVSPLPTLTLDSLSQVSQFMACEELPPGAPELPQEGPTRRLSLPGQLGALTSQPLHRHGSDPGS

Row | Compound | hERG current change (%, negative = inhibition) at 1uM [%]
1 | CC1CCCN(Cc2c(O)ccc3c4c(c(=O)oc23)CCCC4)C1 (centres unmarked) | 5.16
2 | COc1ccc(C(=O)/C=C/c2ccc(O)cc2)c(O)c1CC=C(C)C | 6.04
3 | O=C(CCSc1ccccc1)NCCSCc1ccco1 | 11.3
4 | COC(=O)c1ccc(S(=O)(=O)N2Cc3ccccc3C2)cc1 | 9.51
5 | Cc1cccc2c1-c1sc(C(=O)Nc3cccnc3)cc1CO2 | 18.7
6 | CC1=C([N+](=O)[O-])C(c2ccc(Cl)cc2)NC(=O)N1 (centres unmarked) | 6.59
7 | NC(=O)CC(NC(=O)c1ccccc1)c1ccc(NCCCN2CCCC2=O)c([N+](=O)[O-])c1 (centres unmarked) | 3.91
8 | CC(=O)NCCc1nc2cc(NC(=O)COc3cccc(C)c3)ccc2n1C | 15
9 | CN(C(=O)c1ccc(NC(=O)c2ccco2)cc1)c1ccccc1 | 1.93
10 | CC1=C(C(=O)Nc2ccccc2C)C(c2ccc(C)o2)NC(=S)N1 (centres unmarked) | 15.9
11 | Nc1ccc2c(c1)nnn2-c1ccccc1 | 7.29
12 | O=C(CSc1nnc(-c2ccccc2Cl)o1)N1CCOCC1 | 8.93
13 | O=C(Cn1cnc(S(=O)(=O)N2CCOCC2)c1)Nc1ccc(OC(F)(F)F)cc1 | 19.2
14 | O=P(NS(=O)(=O)c1ccccc1)(Oc1ccccc1)Oc1ccccc1 | -0.657
15 | CCn1cnc2cc(NS(=O)(=O)c3ccc(OC)c(OC)c3)ccc21 | 14.1
16 | COCC(C)n1c(C)cc(C(=O)COC(=O)CCc2nc3ccccc3c(=O)[nH]2)c1C (centres unmarked) | 7.24
17 | CN(C)CCCOc1nc2c(c(=O)n(C)c(=O)n2C)n1C.Cl | 10.2
18 | CSc1ncc(C(=O)Nc2ccccc2Cl)c(C)n1 | 12.5
19 | COc1ccc(C(=O)N=C2CCC(C#N)=C3c4cc(OC)c(OC)cc4CCN23)cc1 | 10.4
20 | Cn1cc(/C=C(\NC(=O)c2ccccc2)C(=O)NCCCN2CCOCC2)c2ccccc21 | 16.7
21 | COC(=O)N/N=C/c1ccc(-c2ccc(Cl)cc2Cl)o1 | 12.9
22 | COc1ccc(Cl)cc1NC(=O)CN(C)C1CCS(=O)(=O)C1 (centres unmarked) | 8.35
23 | COc1ccc(Cl)cc1C(=O)NNC(=O)CCNC(C)=O | 20.8

Row | Compound | hERG current change (%, negative = inhibition) at 1uM [%]
24 | Cc1ccc(NS(=O)(=O)c2ccc(C)c(NC(=O)COc3ccccc3)c2)c(C)c1 | 8.62
25 | CC1=CC(=O)N(c2ccn(C)n2)C1=O | 11.6
26 | COc1cc(NC(=S)Nc2ccccn2)c(OC)cc1Cl | 5.62
27 | CC(=NCCO)c1c(O)n(C)c(=O)n(C)c1=O | 15.2
28 | CC(NC(=O)CSc1nnc(COc2ccccc2)o1)c1ccccc1 (centres unmarked) | 3.79
29 | CCOc1ccccc1C(=O)N[C@H](C(=O)Nc1nc2c(s1)CCCC2)C(C)C | 17.4
30 | Cn1c(COc2ccccc2)nnc1SCC(=O)Nc1ccc(N2CCOCC2)cc1 | 6.93
31 | O=C(NCc1ccc2c(c1)OCO2)c1cccc(S(=O)(=O)N2CCOCC2)c1 | 1.32
32 | COc1ccc(NC(=O)CN2CCN(S(=O)(=O)c3cccs3)CC2)cc1Cl | -3.12
33 | CSc1nnc(-c2ccccc2Cl)n1N | 0.804
34 | Cc1cccc(CN2CCC(Oc3ccc(C(=O)N4CCCC4)cc3)CC2)n1 | 4.56
35 | O=C(CCl)Nc1cc(S(=O)(=O)N2CCCCCC2)ccc1Cl | 8.42
36 | O=C1CC(c2ccccc2)CN1Cc1ccccc1 (centres unmarked) | 6.07
37 | CSc1ccc(/C=N/Nc2ccc(Cl)c(C(=O)O)c2)cc1 | 12.9
38 | CCOC(=O)c1c(-c2ccc(-c3ccccc3)cc2)csc1NC(=O)CCN1CCOCC1 | 13.8
39 | Cc1cc(C)c(S(=O)(=O)NC2CCN(Cc3ccccc3)CC2)c(C)c1.Cl | -5.94
40 | CC(C)NCC(O)COC1C2CC3CC(C2)CC1C3.Cl (centres unmarked) | 14.2
41 | CCC1CCCCN1CCCNC(=O)C1CCN(c2nnc(-n3cccc3)s2)CC1 (centres unmarked) | -2.12
42 | CCOCCCNc1ncnc2c1[nH]c1ccccc12 | 8.38
43 | O=C(CN(C(=O)c1csnn1)c1ccc(F)cc1)NCc1ccc2c(c1)OCO2 | 13.3
44 | Cc1cccc(NC(=O)CCCSc2nc3ccccc3[nH]2)c1 | 8.21
45 | COc1ccc(S(=O)(=O)Cc2ccc(C(=O)NC3CCCCC3)o2)cc1 | 7.73
46 | COc1cc(-c2noc(CCCC(=O)Nc3cccnc3)n2)cc(OC)c1OC | 7.45

Row | Compound | hERG current change (%, negative = inhibition) at 1uM [%]
47 | Cc1ccc(C(=O)Nc2cccc(C(=O)O)c2)cc1S(=O)(=O)N1CCCCC1 | 3.91
48 | CCCc1nnc(N2C(=O)c3cccc4cccc(c34)C2=O)s1 | 8.81
49 | CCn1c(CNC(=O)C(C)(C)C)nc2ccccc21 | 1.97
50 | O=C(N=C1SC2CS(=O)(=O)CC2N1c1ccccc1Cl)C1CCCO1 (centres unmarked) | 23.8
51 | O=C(c1ccccc1)C(C(=O)N1CCCCC1)n1ccccc1=O (centres unmarked) | 1.68
52 | CC[C@H]1OC(=O)[C@H](C)[C@@H](O[C@H]2C[C@@](C)(OC)[C@@H](O)[C@H](C)O2)[C@H](C)[C@@H](O[C@@H]2O[C@H](C)C[C@H](N(C)C)[C@H]2O)[C@](C)(O)C[C@@H](C)C(=NOCOCCOC)[C@H](C)[C@@H](O)[C@]1(C)O | 13.8
53 | Cc1ccc(S(=O)(=O)NCc2cn3ccsc3n2)c(C)c1 | 5.58
54 | Cc1cccc(-n2c(O)c(C=NCCN3CCCCC3)c(=O)[nH]c2=O)c1 | -4.47
55 | CC1(c2ccccc2)CC(C)(C)N2C(=O)C(=O)c3cccc1c32 (centres unmarked) | 3.87
56 | COC(=O)c1ccc(NC(=O)COC(=O)c2cccc3c(=O)c(C)c(-c4ccccc4)oc23)cc1 | 14.2
57 | COc1cc(N2CCCC2)c(OC)cc1/C=C(/C#N)c1ccc(Br)cc1 | -12.2
58 | COC(=O)Cc1c(O)ccn(Cc2ccc(Cl)c(Cl)c2)c1=O | 9.62
59 | Cc1ccc(S(=O)(=O)N2CCN(C(C)C(=O)Nc3ccccc3-c3ccccc3)CC2)cc1 (centres unmarked) | 1.53
60 | CCOc1ccc(CCNC(=O)COC(=O)C2CC2)cc1OCC | 3.24
61 | Cc1cccc(OCC(=O)Nc2nc(-c3ccncc3)cs2)c1 | 8.13
62 | COC(=O)c1ccccc1NC(=O)Nc1ccc(C(=O)N2CCCC2)cc1 | 2.47
63 | CCN(CC)C(=O)Cn1cc(S(=O)(=O)CC(=O)Nc2ccc(OC)c(OC)c2)c2ccccc21 | 0.334
64 | Cc1cc(C)cc(-n2nnnc2SCC(=O)Nc2nc(-c3ccc(F)cc3)cs2)c1 | 5.7
65 | O=C(NCC1CCCCC1)c1ccc(Br)o1 | 16.5
66 | CCC(C)NC(=O)CN1C(=O)NC2NC(=O)NC21 (centres unmarked) | 15
67 | Cn1cc(CNCc2ccc(OC(F)(F)F)cc2)c(-c2ccc3c(c2)OCCO3)n1 | 6.43
68 | O=C(Nc1ccccc1)NC1CCN(CCCN2C(=O)c3ccccc3C2=O)CC1 | -21.8
69 | CC(C)(C)NS(=O)(=O)c1ccc(NC(=S)NC(=O)C2CCC2)cc1 | 14.3

Row | Compound | hERG current change (%, negative = inhibition) at 1uM [%]
70 | O=C(Cn1cncc1-c1ccc([N+](=O)[O-])cc1)Nc1cccc2ccccc12 | 16.5
71 | CC(=O)Nc1ccccc1NC(=O)C/C(C)=N/NC(=O)c1ccncc1 | 15.2
72 | O=C(NCCCN1CCOCC1)c1cccs1 | 15.9
73 | COc1ccc(N2CCN(Cc3nc(N)nc(Nc4ccccc4OC)n3)CC2)cc1 | -14.5
74 | CCOC(=O)n1n[n+]([O-])c2ccccc21 | 24.6
75 | COc1ccc(C(=O)N2CCN(S(=O)(=O)c3ccc(C)cc3C)CC2)cc1OC | 2.34
76 | Cc1cccc(C)c1NC(=O)CN(C)C(=O)CCc1nc2sc3c(c2c(=O)[nH]1)CCCC3 | 13.4
77 | CCCN1CCc2c(sc(NC(=O)CCS(=O)(=O)c3ccccc3)c2C(=O)OC)C1.Cl | -33.1
78 | Clc1ccc(-c2nnc(SCc3ccon3)o2)c(Cl)c1 | 4.17
79 | O=C(COc1ccc([N+](=O)[O-])cc1)Nc1ccc(N2CCCC2)cc1 | 10.6
80 | Cn1cccc1C1(C(F)(F)F)NCCNC1=O (centres unmarked) | 10
81 | CCc1cccc(NS(=O)(=O)c2c(C)n[nH]c2C)c1.Cl | 8.15
82 | CC(C)CCNC(=O)c1ccc2c(Cl)c3c(nc2c1)CCC3 | 15.3
83 | Nc1nc2ccc(-c3nc4ccccc4o3)cc2s1 | 11.2
84 | CCOC(=O)C(C(=O)Nc1nc2ccccc2s1)C1CCCCC1 (centres unmarked) | 16
85 | CCOC(=O)c1ccc(NC(=O)c2nccnc2C(=O)O)cc1 | 6.66
86 | O=C(Nc1nnc(-c2ccccc2Cl)o1)c1nc2ccccc2s1 | 2.97
87 | Cl.Nc1cnccc1Oc1cccc(C(F)(F)F)c1 | 6.26
88 | Cc1ccc(NC(=O)c2cccc(S(=O)(=O)N3CCCCC3)c2)cc1 | 14.4
89 | CCCC(C(=O)NCc1ccco1)N(C(=O)CNS(=O)(=O)c1ccccc1)C1CCCC1 (centres unmarked) | 5.48
